To fix the notation:
B1: LINE1-full (parent)
chain: UACGUAGGUGGUUUUCCCCUGAUAGUGCUAAGGGGGCCUGGAAGUUUGGACUGGGCAGAGCUCAACACAGCGUGGCAAAGUGGCUGUGGCUAGACUGCCUCUCUGGAUUCCUCGUCACUCAGCAGGGCAUCUCUGAGAGAAAUGCC

Read counts are not given, so values of variants with three or more changes are uncertain.

Variants of B1 are the subject of the data set. As to the kind of experiment: self-cleavage, relative activity (ratio to wild type); higher = more cleavage; in vitro, sequencing; the parent is a self-cleaving ribozyme.
As for UACGUAGGUGGUUUUCCCCUGAUAGUGCUAAGGGGGCCUGGAAGUUUGGACUGGGCAGAGCUCAACACAGCGUGGCAAAGUGGCUGUGGCUAGACUGCCUCUCUGGACUCCUCGUCAAUCAGCAGGGCUUCUCCGAGAGAAAUGCC [U108C C118A A129U U134C], the self-cleavage worked out at 1.8.
As for UACGUAGGUGGUUUUCCCCUGAUAGUGCUAAGGGGGCCUGGAAGUUUGGACUGGGCAGAGCUCAACACAGCGUGGCAAAGUGGCUGUGGCUAGACUGCCUCUCUGGAUUCAUCGUCACUCAGCAGGGCAUCUCUGGGAGAAAUACC [C111A A136G G144A], the figure is 1.63; as for UACGUAGGUGGUUUUCCCCUGAUAGUGCUAAGGGGGCCUGGAAGUUUGGACUGGGCAGAGCUCAACACAGCGUGGCAAAGUGGCUGUGGCUAGACUGCCUCUCUGGGUUCCUCGUCACUCAGCAGGGCAUCUCCGAGAGAAACGCC [A107G U134C U143C], 1.31.
In the case of UACGUAGGUGGUUUUCCCCUGAUAGUGCUAAGGGGGCCUGGAAGUUUGGACUGGGCAGAGCUCAACACAGCGUGGCAAAGUGGCUGUGGCUAGACUGCCUCUCUGGACUCCUCGCCACUCAGCAGGGCAUCUCUGAGGGAAAUGCC [U108C U115C A138G], the self-cleavage came out at 1.97.
On to UACGUAGGUGGUUUUCCCCUGAUAGUGCUAAGGGGGCCUGGAAGUUUGGACUGGGCAGAGCUCAACACAGCGUGGCAAAGUGGCUGUGGCUAGACUGCCUCUCUGGGUUCCACGUCACUCAGCAGGGCAUCUCUGAGAGAAACGCC [A107G U112A U143C], for which the self-cleavage was determined as 1.97.
Under UACGUAGGUGGUUUUCCCCUGAUAGUGCUAAGGGGGCCUGGAAGUUUGGACUGGGCAGAGCUCAACACAGCGUGGCAAAGUGGCUGUGGCUAGACUGCCUCUCUGGAAUCCUCGGCUCUCAGCAGGGCAUCUCUGAGAGAAAUGCC [U108A U115G A117U] stands 1.47; under UACGUAGGUGGUUUUCCCCUGAUAGUGCUAAGGGGGCCUGGAAGUUUGGACUGGGCAGAGCUCAACACAGCGUGGCAAAGUGGCUGUGGCUAGACUGCCUCUCUGGAAUCCUCGUCACUCAGCAGGGCACCUUUGAGAGAAAUGCC [U108A U130C C133U], 2.
In the case of UACGUAGGUGGUUUUCCCCUGAUAGUGCUAAGGGGGCCUGGAAGUUUGGACUGGGCAGAGCUCAACACAGCGUGGCAAAGUGGCUGUGGCUAGACUGCCUCUCUGGCGUCCUCGUCACUCAGCUGGGCAUCUCUGAGAGAAAUGCC [A107C U108G A124U], the self-cleavage turned out to be 0.48.
Under UACGUAGGUGGUUUUCCCCUGAUAGUGCUAAGGGGGCCUGGAAGUUUGGACUGGGCAGAGCUCAACACAGCGUGGCAAAGUGGCUGUGGCUAGACUGCCUCUCUAGAUUCCUCGCCACUCGGCAGGGCAUCUCUGAGAGAAAUGCC [G105A U115C A121G] stands 1.98.
As for UACGUAGGUGGUUUUCCCCUGAUAGUGCUAAGGGGGCCUGGAAGUUUGGACUGGGCAGAGCUCAACACAGCGUGGCAAAGUGGCUGUGGCUAGACUGCCUCUCUGGGUUCCUCGUCACUCAGCGGGGCAUCUCUGGGAGAAAUGCC [A107G A124G A136G], the figure is 0.84; as for UACGUAGGUGGUUUUCCCCUGAUAGUGCUAAGGGGGCCUGGAAGUUUGGACUGGGCAGAGCUCAACACAGCGUGGCAAAGUGGCUGUGGCUAGACUGCCUCUCUGGUUUCCUCGCCCCUCAGCAGGGCAUCUCUGAGAGAAAUGCC [A107U U115C A117C], 1.84.
As for UACGUAGGUGGUUUUCCCCUGAUAGUGCUAAGGGGGCCUGGAAGUUUGGACUGGGCAGAGCUCAACACAGCGUGGCAAAGUGGCUGUGGCUAGACUGCCUCUCUGGAUACCUCGUCACUCAGCAGGGCAUCCCAGAGAGAAAUGCC [U109A U132C U134A], the self-cleavage is 0.42.
On to UACGUAGGUGGUUUUCCCCUGAUAGUGCUAAGGGGGCCUGGAAGUUUGGACUGGGCAGAGCUCAACACAGCGUGGCAAAGUGGCUGUGGCUAGACUGCCUCUCUGGGUUCCUCGCCACUCAGCAGGGCAUCUCUGAGAGAAACGCC [A107G U115C U143C], for which the self-cleavage came to 0.
Under UACGUAGGUGGUUUUCCCCUGAUAGUGCUAAGGGGGCCUGGAAGUUUGGACUGGGCAGAGCUCAACACAGCGUGGCAAAGUGGCUGUGGCUAGACUGCCUCUCUGGAUCCCCCGUCGCUCAGCAGGGCAUCUCUGAGAGAAAUGCC [U109C U112C A117G] stands 1.44.
Under UACGUAGGUGGUUUUCCCCUGAUAGUGCUAAGGGGGCCUGGAAGUUUGGACUGGGCAGAGCUCAACACAGCGUGGCAAAGUGGCUGUGGCUAGACUGCCUCUCUGGACUCCUCGUCACUCAGCGGGGCAUCUCUGAGAGAAACGCC [U108C A124G U143C] stands 2.83; under UACGUAGGUGGUUUUCCCCUGAUAGUGCUAAGGGGGCCUGGAAGUUUGGACUGGGCAGAGCUCAACACAGCGUGGCAAAGUGGCUGUGGCUAGACUGCCUCUCUGGAUACCUCGUCGCUCAGCAGGGCAUCUCUGAGGGAAAUGCC [U109A A117G A138G], 0.88.
For UACGUAGGUGGUUUUCCCCUGAUAGUGCUAAGGGGGCCUGGAAGUUUGGACUGGGCAGAGCUCAACACAGCGUGGCAAAGUGGCUGUGGCUAGACUGCCUCUCUGGAUACCUCAUCACUCAGCGGGGCAUCUCUGAGAGAAAUGCC [U109A G114A A124G], the self-cleavage was 1.25.
Under UACGUAGGUGGUUUUCCCCUGAUAGUGCUAAGGGGGCCUGGAAGUUUGGACUGGGCAGAGCUCAACACAGCGUGGCAAAGUGGCUGUGGCUAGACUGCCUCUCUGGAUACCUCGUCACUCAGCGGGGCAUCUCUGGGGGAAAUGCC [U109A A124G A136G A138G] stands 2.04; under UACGUAGGUGGUUUUCCCCUGAUAGUGCUAAGGGGGCCUGGAAGUUUGGACUGGGCAGAGCUCAACACAGCGUGGCAAAGUGGCUGUGGCUAGACUGCCUCUCUAGAUUCCUCGUCACUCAGCAGGGCGUCUCUGAGAGAAGUGCC [G105A A129G A142G], 1.88; under UACGUAGGUGGUUUUCCCCUGAUAGUGCUAAGGGGGCCUGGAAGUUUGGACUGGGCAGAGCUCAACACAGCGUGGCAAAGUGGCUGUGGCUAGACUGCCUCUCUGGACUCCUCGUCACUCAGCAGGGCAUCUCUGAGGGAGAUGCC [U108C A138G A141G], 0.15.
As for UACGUAGGUGGUUUUCCCCUGAUAGUGCUAAGGGGGCCUGGAAGUUUGGACUGGGCAGAGCUCAACACAGCGUGGCAAAGUGGCUGUGGCUAGACUGCCUCUCUAGAUUCCUCGUCACUCAGCUGGGCAUCCCUGAGAGAAAUGCC [G105A A124U U132C], the figure is 1.71; as for UACGUAGGUGGUUUUCCCCUGAUAGUGCUAAGGGGGCCUGGAAGUUUGGACUGGGCAGAGCUCAACACAGCGUGGCAAAGUGGCUGUGGCUAGACUGCCUCUCUGGACUCCUCGGCACUCAGCAGGGCAUCCCUGAGAGAAAUGCC [U108C U115G U132C], 0.4; as for UACGUAGGUGGUUUUCCCCUGAUAGUGCUAAGGGGGCCUGGAAGUUUGGACUGGGCAGAGCUCAACACAGCGUGGCAAAGUGGCUGUGGCUAGACUGCCUCUCUGAAUUCCUCGUCACUCAACAGGGCAUCUCUAAGAGAAAUGCC [G106A G122A G135A], 1.22.
Under UACGUAGGUGGUUUUCCCCUGAUAGUGCUAAGGGGGCCUGGAAGUUUGGACUGGGCAGAGCUCAACACAGCGUGGCAAAGUGGCUGUGGCUAGACUGCCUCUCUGGUUUCCUCGUCACUCAGCGGGGUAUCUCUGAGAGAAAUGCC [A107U A124G C128U] stands 1.3; under UACGUAGGUGGUUUUCCCCUGAUAGUGCUAAGGGGGCCUGGAAGUUUGGACUGGGCAGAGCUCAACACAGCGUGGCAAAGUGGCUGUGGCUAGACUGCCUCUCUGGAUCCCUCGUCACUCAGCAGGGCAUCCCUGAGAGAAAAGCC [U109C U132C U143A], 1.33.
Take UACGUAGGUGGUUUUCCCCUGAUAGUGCUAAGGGGGCCUGGAAGUUUGGACUGGGCAGAGCUCAACACAGCGUGGCAAAGUGGCUGUGGCUAGACUGCCUCUCUGGAUACCUCGUCACUCAGCAGGGCAUCACUGAGGGAAAUGCC [U109A U132A A138G]: the self-cleavage was found to be 2.26.
As for UACGUAGGUGGUUUUCCCCUGAUAGUGCUAAGGGGGCCUGGAAGUUUGGACUGGGCAGAGCUCAACACAGCGUGGCAAAGUGGCUGUGGCUAGACUGCCUCUCUGGACCCCUCGCCACUCAGCAGGGCAUCUCUGAGAGAAAUGCC [U108C U109C U115C], the figure is 2.04; as for UACGUAGGUGGUUUUCCCCUGAUAGUGCUAAGGGGGCCUGGAAGUUUGGACUGGGCAGAGCUCAACACAGCGUGGCAAAGUGGCUGUGGCUAGACUGCCUCUCUGGAUCCCUCGCCACUCAGCAGGGCGUCUCUGAGAGAAAUGCC [U109C U115C A129G], 0.
Under UACGUAGGUGGUUUUCCCCUGAUAGUGCUAAGGGGGCCUGGAAGUUUGGACUGGGCAGAGCUCAACACAGCGUGGCAAAGUGGCUGUGGCUAGACUGCCUCUCUGGGUUCCUCAUCACUCAGCUGAGCAUCUCUGAGAGAAAUGCC [A107G G114A A124U G126A] stands 0.9; under UACGUAGGUGGUUUUCCCCUGAUAGUGCUAAGGGGGCCUGGAAGUUUGGACUGGGCAGAGCUCAACACAGCGUGGCAAAGUGGCUGUGGCUAGACUGCCUCUCUGGAUACCUCGCCACUCAUCAGGGCAUCUCUGAGAGAAAUGCC [U109A U115C G122U], 1.35; under UACGUAGGUGGUUUUCCCCUGAUAGUGCUAAGGGGGCCUGGAAGUUUGGACUGGGCAGAGCUCAACACAGCGUGGCAAAGUGGCUGUGGCUAGACUGCCUCUCUGGAUCCCUCGUCACUCAGCAGGGCAUCUCUGAGGGAAGUGCC [U109C A138G A142G], 1.84.
Take UACGUAGGUGGUUUUCCCCUGAUAGUGCUAAGGGGGCCUGGAAGUUUGGACUGGGCAGAGCUCAACACAGCGUGGCAAAGUGGCUGUGGCUAGACUGCCUCUCUGGAUCCUUCGUCACUCAGCAGGGCAUCUCUGGGAGAAAUGCC [U109C C111U A136G]: the self-cleavage was 1.2.
Under UACGUAGGUGGUUUUCCCCUGAUAGUGCUAAGGGGGCCUGGAAGUUUGGACUGGGCAGAGCUCAACACAGCGUGGCAAAGUGGCUGUGGCUAGACUGCCUCUCUGGCUUCCUCGUCACUCAGCAGGGCAUCUCUGGGAGAAAAGCC [A107C A136G U143A] stands 0.71; under UACGUAGGUGGUUUUCCCCUGAUAGUGCUAAGGGGGCCUGGAAGUUUGGACUGGGCAGAGCUCAACACAGCGUGGCAAAGUGGCUGUGGCUAGACUGCCUCUCUGGAAUCCUCGUCACUCAGUAGGGCAUCUCUGAGCGAAAUGCC [U108A C123U A138C], 1.32; under UACGUAGGUGGUUUUCCCCUGAUAGUGCUAAGGGGGCCUGGAAGUUUGGACUGGGCAGAGCUCAACACAGCGUGGCAAAGUGGCUGUGGCUAGACUGCCUCUCUGGAUACCUCGCCACUCAGCAGGGCAUCUCUGAGGGAAAUGCC [U109A U115C A138G], 2.45.
For UACGUAGGUGGUUUUCCCCUGAUAGUGCUAAGGGGGCCUGGAAGUUUGGACUGGGCAGAGCUCAACACAGCGUGGCAAAGUGGCUGUGGCUAGACUGCCUCUCUGGACUCCUCGUCACUCAGCAGGGCAUCUCUGCGAAAAAUGCC [U108C A136C G139A], the self-cleavage amounted to 1.36.
Under UACGUAGGUGGUUUUCCCCUGAUAGUGCUAAGGGGGCCUGGAAGUUUGGACUGGGCAGAGCUCAACACAGCGUGGCAAAGUGGCUGUGGCUAGACUGCCUCUCUGGUUUCCUCGUCACUCAGCUGGGCAUCUCUGAGAGAGAUGCC [A107U A124U A141G] stands 1.49; under UACGUAGGUGGUUUUCCCCUGAUAGUGCUAAGGGGGCCUGGAAGUUUGGACUGGGCAGAGCUCAACACAGCGUGGCAAAGUGGCUGUGGCUAGACUGCCUCUCUGGAUCCCCCGUCACUCAGCAGGGCACCUCUGAGAGAAAUGCC [U109C U112C U130C], 0.
With UACGUAGGUGGUUUUCCCCUGAUAGUGCUAAGGGGGCCUGGAAGUUUGGACUGGGCAGAGCUCAACACAGCGUGGCAAAGUGGCUGUGGCUAGACUGCCUCUCUGGACUCCUCGUAACUCAGCAGGGCAUCUCUGAGAGAGAUGCC [U108C C116A A141G], the self-cleavage was determined as 1.17.

The record behind these values is the RNAGym collection of RNA variant scans (doi:10.7554/elife.90254).
